{
  "source": "the supplement of paper PMC9174493",
  "note": "The other results are listed elsewhere or left out. Single values of this set are uncertain. Values with irradiation are relative to irradiated vehicle.",
  "data": [
    {"tested_on": "A549-Dual", "test": "ISRE reporter (Lucia luciferase) activity, viability-corrected, relative to vehicle (fold change vs vehicle); higher = more activation of STING-IRF / NF-kB immune response reporter", "conditions": "1 µM; irradiation: none", "values": [
      {"smiles": "Cn1cnc([N+](=O)[O-])c1Sc1ncnc2nc[nH]c12", "note": "[Azathioprine]", "ISRE reporter": 0.888},
      {"smiles": "O=c1ccc2cc3ccoc3cc2o1", "note": "[Psoralen]", "ISRE reporter": 0.721},
      {"smiles": "CCC(=O)NS(=O)(=O)c1ccc(-c2c(-c3ccccc3)noc2C)cc1", "note": "[Parecoxib]", "ISRE reporter": 0.916},
      {"smiles": "COc1ccc(-c2ccc3cc(C(=O)O)ccc3c2)cc1C12CC3CC(CC(C3)C1)C2", "note": "[Adapalene]", "ISRE reporter": 1.13},
      {"smiles": "CCC(C(=O)O)c1ccc(N2Cc3ccccc3C2=O)cc1", "note": "(configuration not stated) [Indobufen]", "ISRE reporter": 0.768},
      {"smiles": "COC1CC2CCC(C)C(O)(O2)C(=O)C(=O)N2CCCCC2C(=O)OC(C(C)CC2CCC(O)C(OC)C2)CC(=O)C(C)/C=C(\\C)C(O)C(OC)C(=O)C(C)CC(C)/C=C/C=C/C=C/1C", "note": "(configuration not stated) [Rapamycin (Sirolimus)]", "ISRE reporter": 1.42},
      {"smiles": "COc1ccc(C2CNC(=O)C2)cc1OC1CCCC1", "note": "(configuration not stated) [Rolipram]", "ISRE reporter": 0.855},
      {"smiles": "Nc1nc(N)c2nc(-c3ccccc3)c(N)nc2n1", "note": "[Triamterene]", "ISRE reporter": 0.845},
      {"smiles": "CN(C)CCN1C(=O)c2cccc3cc(N)cc(c23)C1=O", "note": "[Amonafide]", "ISRE reporter": 4.51},
      {"smiles": "CN1CCCC1CCOC(C)(c1ccccc1)c1ccc(Cl)cc1.O=C(O)/C=C/C(=O)O", "note": "(configuration not stated) [Clemastine Fumarate]", "ISRE reporter": 1.41},
      {"smiles": "CC12C=CC(=O)C=C1CCC1C3CC(O)C(O)(C(=O)CO)C3(C)CC(O)C12F", "note": "(configuration not stated) [Triamcinolone]", "ISRE reporter": 0.326},
      {"smiles": "CC1CC2C3CCC4=CC(=O)C=CC4(C)C3C(=O)CC2(C)C1(O)C(=O)CO", "note": "(configuration not stated) [Meprednisone]", "ISRE reporter": 0.819}
    ]}
  ]
}
